In PubChem BioAssay AID624417 (National Center for Advancing Translational Sciences (NCATS), 2012):
The whole screen tested about 410,000 compounds, of which about 6,400 (1.6%) were called active. This list was built around the results that the source calls inconclusive (neither active nor inactive); the mix of calls is not that of the screen. Calls follow the shape of the dose curve; as a rule, active = well fitted inhibition curve with a large enough effect; inconclusive = small, poorly fitted or top-dose-only effect; inactive = no such curve, though single readings can be large or run the other way. Potencies of inconclusive entries are left out as doubtful fits.

Biological target: Glucagon-like peptide 1 receptor (Homo sapiens) (UniProt P43220)
UniProt P43220, sequence (P43220 whole entry, looked up): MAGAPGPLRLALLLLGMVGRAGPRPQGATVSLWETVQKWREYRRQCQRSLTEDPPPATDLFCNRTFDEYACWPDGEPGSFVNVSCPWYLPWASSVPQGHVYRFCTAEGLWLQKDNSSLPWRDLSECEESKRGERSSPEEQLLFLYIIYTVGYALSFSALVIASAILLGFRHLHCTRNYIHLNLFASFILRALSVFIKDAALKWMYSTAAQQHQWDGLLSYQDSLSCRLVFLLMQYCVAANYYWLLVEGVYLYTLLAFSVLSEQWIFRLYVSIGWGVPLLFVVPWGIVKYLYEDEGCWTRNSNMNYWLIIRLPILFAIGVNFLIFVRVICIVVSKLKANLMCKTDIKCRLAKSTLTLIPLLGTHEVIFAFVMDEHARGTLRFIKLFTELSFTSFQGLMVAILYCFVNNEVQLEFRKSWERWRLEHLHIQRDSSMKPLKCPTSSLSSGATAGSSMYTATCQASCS
Test: qHTS of GLP-1 Receptor Inverse Agonists (Inhibition Mode); also: nearly all actives have a fitted effect of over 55% in size
Settings: HEK293 GLP-1R CRE-luciferase, luminescence, 24 h, GLP-1R form is constitutively active; activity change, negative = inhibition: at 38.3 µM (top of the series) unless noted
In short: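 HEK293 cells stably co-expressing a cAMP-responsive luciferase reporter and constitutively active GLP-1R were seeded, incubated 12 h, then exposed to compounds for 24 h at 37 C. Luminescence was read 12 min after detection reagent; inverse agonists lower signal.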
% is scaled to controls: 0 for no effect and ±100 for the full control effect; potency is read from the fitted curve at half-maximal effect; tags tell the direction and shape of the fitted curve.

Row | Compound | activity change, negative = inhibition | Potency
1 | CCCCN(C(=O)c1ccc(-c2ccc(Cl)cc2)o1)c1c(N)n(CCC)c(=O)[nH]c1=O | inactive: -6.45% | 
2 | Cc1ccc(NC(=S)NCCSc2ccc(Cl)cc2)cc1 |  | inconclusive [inhibitor, partial curve, poor fit]
3 | CCOC(=O)N1CCN(C(=O)c2ccc(N(C)S(=O)(=O)c3ccc(C)cc3)cc2)CC1 |  | inconclusive [inhibitor, partial curve]
4 | CC(C)(C)c1ccc(-c2csc(NNC3=NCCCCC3)n2)cc1 | inactive: -3.24% | 
5 | COc1ccc(-c2cc(=O)oc3cc(OC(=O)C4CCCCC4)c(Cl)cc23)cc1 |  | inconclusive [inhibitor, partial curve]
6 | CC(C)C(O)(c1ccccc1)C(CN1CCOCC1)c1ccccc1 (stereo not drawn) |  | inconclusive [inhibitor, single point]
7 | Cc1cccc(C(=O)N(Cc2nc3ccccc3c(=O)[nH]2)C2CCCCC2)c1 |  | inconclusive [inhibitor, single point]
8 | CN(C)c1ccc(C(=O)OCC(=O)Nc2cccc(S(=O)(=O)N3CCCC3)c2)cc1 |  | inconclusive [inhibitor, partial curve, poor fit]
9 | C[C@H](CO)N1C[C@H](C)[C@@H](CN(C)Cc2ccc(Cl)c(Cl)c2)Oc2c(NS(=O)(=O)c3ccc(F)cc3)cccc2C1=O |  | active: 11.2 µM
10 | CCOC(=O)c1ccc(NC(=S)N(CCCN(CC)CC)Cc2ccco2)cc1 |  | inconclusive [inhibitor, partial curve, poor fit]
11 | COc1ccccc1CNS(=O)(=O)c1ccc(F)c(C(=O)Nc2cc(Cl)ccc2OC)c1 |  | inconclusive [inhibitor, single point]
12 | O=C(NN=C1C2CC3CC(C2)CC1C3)c1cc(Cl)ccc1O | inactive: 21.2% | 
13 | Cc1ccccc1NC(=O)Cc1nc(COC(=O)CC(C)c2ccccc2)cs1 (stereo not drawn) |  | inconclusive [inhibitor, single point]
14 | Cc1cc(C)c(NC(=O)/C(=C/c2ccco2)c2ccccc2)c(C)c1 |  | inconclusive [inhibitor, partial curve, poor fit]
15 | Cc1ccc(OCCn2nnc3ccccc32)cc1C |  | inconclusive [inhibitor, single point]
16 | CN(CC(=O)Nc1ccccc1Cl)C(=O)COc1cccc2c1OC(C)(C)C2 |  | inconclusive [inhibitor, single point]
17 | COc1ccccc1N1CCN(S(=O)(=O)c2c(C)nc3sc(C)c(C)n3c2=O)CC1 | inactive: 0.849% | 
18 | N=c1sccn1CC(=O)Nc1cc(S(=O)(=O)N2CCCCC2)ccc1Cl |  | inconclusive [inhibitor, single point]
19 | CC(=O)NC12CC3CC(C1)CC(C(=O)Oc1ccc(N(C)S(=O)(=O)c4cc(C)ccc4C)cc1)(C3)C2 |  | inconclusive [inhibitor, single point]
20 | Cc1onc(-c2c(F)cccc2Cl)c1C(=O)N(C)CC(=O)Nc1cccc(F)c1 |  | inconclusive [inhibitor, partial curve, poor fit]
21 | CC1CCN(S(=O)(=O)c2ccc3nc(Nc4ccc(C#N)cc4)ccc3c2)CC1 |  | inconclusive [inhibitor, partial curve, poor fit]

Row | Compound | activity change, negative = inhibition | Potency
22 | CC1(C(=O)Nc2cnc3ccccc3c2)CCN1CCc1ccccc1 (stereo not drawn) |  | inconclusive [inhibitor, single point]
23 | O=C(Oc1oc(-c2ccco2)nc1C=Nc1ccccc1)c1ccoc1 | inactive: -2.56% | 
24 | CCc1ccc(NC2=NCC(=O)N2Cc2ccc3c(c2)OCO3)cc1 |  | inconclusive [inhibitor, single point]
25 | FC(F)(F)c1cccc(CNC2CCN(Cc3ccccc3)CC2)c1 |  | inconclusive [inhibitor, partial curve, poor fit]
26 | COc1ccc(-c2nn(-c3ccccc3)cc2C(=O)N(C)CC(=O)Nc2ccccc2Br)cc1 |  | inconclusive [inhibitor, partial curve, poor fit]
27 | COc1cccc(NC(=O)C2CCCN(c3ncnc4c3nc3n4CCCCC3)C2)c1 (stereo not drawn) |  | inconclusive [inhibitor, partial curve, poor fit]
28 | COc1cc(/C=N/Nc2ccccc2)ccc1O |  | active: 2.51 µM
29 | CC(C)Oc1cc(F)ccc1-c1cc(C(=O)Nc2ccc(C(C)C)cc2)[nH]n1 |  | inconclusive [inhibitor, partial curve, poor fit]
30 | CCCCC(=O)OC1=C(C(=O)c2ccccc2)N(CC)S(=O)(=O)c2ccccc21 |  | inconclusive [inhibitor, partial curve, poor fit]
31 | CSc1ccc(CNC(=O)c2cc3cc(S(=O)(=O)N4CCCCC4)ccc3n2C)cc1 |  | inconclusive [inhibitor, partial curve, poor fit]
32 | COc1ccccc1OCc1nnc(SCC(=O)c2cc(Cl)ccc2OC)o1 |  | inconclusive [inhibitor, single point]
33 | Cc1ccc(C)c(-c2csc(NC(=O)c3c(C)noc3C)n2)c1 |  | inconclusive [inhibitor, partial curve, poor fit]
34 | CC(C)[C@H](NC(=O)c1ccccc1)C(=O)OCC(=O)Nc1ccc(Cl)cc1C(F)(F)F |  | inconclusive [inhibitor, single point]
35 | CCOC(=O)c1c(Nc2cc(C)cc(C)c2)nnc(-c2ccccc2)c1-c1ccccc1 |  | active: 7.94 µM
36 | Cc1cc(NC(=O)Cn2nnc3sc4c(c3c2=O)CCC(C(C)(C)C)C4)no1 (stereo not drawn) |  | inconclusive [inhibitor, single point]
37 | Cc1ccn2c(c1)nc(=S)n2C(=O)c1ccccc1 |  | active: 2.51 µM
38 | Cn1c(=O)n(Cc2ccc(F)cc2)c(=O)c2c1nc1n2CCCN1C1CCCCC1 |  | inconclusive [inhibitor, full curve, poor fit]
39 | CCOC(=O)N1CCN(C(=O)CSc2nc3c(c(=O)n2-c2ccccc2OC)SCC3)CC1 | inactive: 1.09% | 
40 | COc1ccc(C(=O)OCC(=O)NCC2CCCCC2)c(OC)c1 |  | inconclusive [inhibitor, single point]
41 | O=C(c1cccc(C(F)(F)F)c1)N1CCN(S(=O)(=O)c2ccc(Cl)s2)CC1 |  | inconclusive [inhibitor, partial curve, poor fit]
42 | O=C1COc2ccc(C(=O)COc3ccc(Cl)cc3Br)cc2N1 |  | inconclusive [inhibitor, single point]

Row | Compound | activity change, negative = inhibition | Potency
43 | Cc1ccc(NC(=O)CN2CCCC2c2cccs2)cc1S(=O)(=O)N1CCCCC1 (stereo not drawn) |  | active: 4.47 µM
44 | COc1ccc(Cn2ccc3nc(C)c(C(=O)Nc4ccc(OC(F)(F)F)cc4)cc3c2=O)cc1 |  | inconclusive [inhibitor, full curve]
45 | CCCCN(C=O)c1c(CC)nc2c(OCc3cccc(Cl)c3)cccn12 |  | inconclusive [inhibitor, single point]
46 | CCOc1ccc(Nc2nc(N)nc(CN3CCN(c4ccccc4F)CC3)n2)cc1 |  | inconclusive [inhibitor, single point]
47 | CN(CC(=O)Nc1ccc(Cl)c(C(F)(F)F)c1)C(=O)c1ccccc1SCC(=O)N1CCCC1 |  | inconclusive [inhibitor, single point]
48 | CC(CN1CCOCC1)OC(=O)c1ccc2c(c1)OCCO2 (stereo not drawn) | inactive: 18% | 
49 | CCN1CCN(c2cc(C)c3cc(NC(=O)c4cncc(Br)c4)ccc3n2)CC1 |  | inconclusive [inhibitor, partial curve, poor fit]
50 | O=C(CNc1cccc(F)c1)N1CCc2ccccc2C1 |  | inconclusive [inhibitor, partial curve, poor fit]
51 | O=C(NC(=S)NCc1ccccc1Cl)c1cccs1 |  | inconclusive [inhibitor, partial curve, poor fit]
52 | Cc1cc(NC(=O)CCCN2C(=O)/C(=C\c3cccs3)SC2=S)no1 | inactive: 18.4% | 
53 | Brc1ccccc1OCCOCCOc1cccc2cccnc12 |  | inconclusive [inhibitor, partial curve]
54 | CCOC(=O)N1CCN(C(=O)C(C)(C)Oc2ccc(Cl)cc2)CC1 |  | inconclusive [inhibitor, single point]
55 | Cc1ccc(CS/C(Nc2ccccc2C)=C(\C#N)C(N)=O)c(C)c1 |  | inconclusive [inhibitor, partial curve, poor fit]
56 | O=C(Nc1ncccn1)C12CC3CC(CC(C3)C1)C2 | inactive: 2.52% | 
57 | c1ccc2sc(NN=C3CCCCCC3)nc2c1 |  | inconclusive [inhibitor, partial curve, poor fit]
58 | COc1cccc(C(O)c2ncc(-c3ccc(Cl)cc3)[nH]2)c1 (stereo not drawn) |  | inconclusive [inhibitor, full curve, poor fit]
59 | Cc1ccc(C)n1-n1c(C)nc2scc(-c3cccs3)c2c1=O |  | inconclusive [inhibitor, partial curve, poor fit]
60 | c1ccc(-c2ccc(-c3nc(-c4ccccn4)no3)cc2)cc1 | inactive: -10.9% | 
61 | CCNC(=S)N/N=C/c1ccco1 |  | inconclusive [inhibitor, single point]
62 | CC(=O)CSc1nsc(SCC(C)=O)c1C#N |  | inconclusive [inhibitor, partial curve, poor fit]
63 | O=S(=O)(c1ccccc1)N1N=C(c2ccc(Br)cc2)CC1c1ccco1 (stereo not drawn) |  | inconclusive [inhibitor, single point]
